# Results taken from the supplement of paper PMC4604168 (melanoma cell lines).
# Some of the results follow. Most values come without repeats; read them as rough.
# Key:
# Test in all cases: cell count relative to DMSO control; melanoma cells; higher = more viable cells
# Settings in all cases: library dose: low library concentration; 72 h
# MeWo = system: MeWo
# RPMI7951 = system: RPMI7951
# RVH-421 = system: RVH-421
# SkMel28 = system: SkMel28
# SkMel30 = system: SkMel30
# SkMel5 = system: SkMel5
# UACC257 = system: UACC257
# UACC62 = system: UACC62
# WM115 = system: WM115
# WM1716 = system: WM1716
# 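Further: cell number obtained by counting DAPI-stained nuclei in high-throughput microscope images with image analysis software, screen run in 1,536-well plates.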
Structure (SMILES),cell count (MeWo) [%],cell count (RPMI7951) [%],cell count (RVH-421) [%],cell count (SkMel28) [%],cell count (SkMel30) [%],cell count (SkMel5) [%],cell count (UACC257) [%],cell count (UACC62) [%],cell count (WM115) [%],cell count (WM1716) [%]
"O=C(O)C(=O)Nc1sc2c(c1C(=O)O)CCNC2 + Oc1nc(-c2ccc(C(F)(F)F)cc2)nc2c1CSCC2 [XAV939] (first compound 1.66667 µM, partner dose 2 µM)",98.4,92.2,96,98.4,134,82.2,69.5,91.1,77.3,47.2
"O=S(=O)(c1ccccc1)N(CC(F)(F)F)c1ccc(C(O)(C(F)(F)F)C(F)(F)F)cc1 + COc1cc2ncnc(Nc3ccc(Oc4ccccc4)cc3)c2cc1OC [SrcI1] (first compound 1.4 µM, partner dose 2 µM)",96.5,112,108,88.3,111,88.9,98.8,90.4,99.4,111
"Oc1cc(-c2nc(-c3ccccc3)[nH]c2-c2ccncc2)ccc1Cl + CC(C)CCN1c2nc(Nc3cc(F)c(O)c(F)c3)ncc2N(C)C(=O)C1C [BID1870] (first compound 0.2 µM, partner dose 0.2 µM)",99,91.8,80.2,76,108,86.9,78.6,57.4,72.2,109
"COC(=O)c1sccc1S(=O)(=O)Nc1ccc(Nc2ccccc2)cc1OC + COc1cc(N2CCC(N3CCN(C)CC3)CC2)ccc1Nc1ncc(Cl)c(Nc2ccccc2S(=O)(=O)C(C)C)n1 [NVP-TAE684] (first compound 1 µM, partner dose 0.08 µM)",91.7,92.6,83.9,80.9,93.1,74.4,80,81.2,93.4,102
"O=C1NC(=O)/C(=C/c2ccc(-c3ccc(F)cc3O)o2)S1 + COc1cc(N2CCC(N3CCN(C)CC3)CC2)ccc1Nc1ncc(Cl)c(Nc2ccccc2S(=O)(=O)C(C)C)n1 [NVP-TAE684] (first compound 1 µM, partner dose 0.08 µM)",83,98.2,105,72.5,63.9,88.3,95.7,81,98.7,87.7
"N#Cc1c(O)c2c(-c3ccc(-c4ccccc4O)cc3)csc2[nH]c1=O + COC(=O)c1sccc1S(=O)(=O)Nc1ccc(Nc2ccccc2)cc1OC [GSK0660] (first compound 2 µM, partner dose 1 µM)",95.2,102,78.3,86.8,119,99,98.3,90.8,109,114
"N#Cc1c(O)c2c(-c3ccc(-c4ccccc4O)cc3)csc2[nH]c1=O + Oc1cc(-c2nc(-c3ccccc3)[nH]c2-c2ccncc2)ccc1Cl [L779450] (first compound 2 µM, partner dose 0.2 µM)",92.9,93.1,87.7,71.5,78.6,104,97.6,68.5,83.3,114
"COC(=O)c1sccc1S(=O)(=O)Nc1ccc(Nc2ccccc2)cc1OC + Cc1cc([N+](=O)[O-])ccc1NS(=O)(=O)c1cc(Cl)ccc1Cl [FH535] (first compound 1 µM, partner dose 1 µM)",107,99.3,102,91.8,98.8,83.7,91.8,110,91.5,94.2
"COc1ccc2c(c1)CCC1C2CCC2(C)C(NCCCCCCN3C(=O)C=CC3=O)CCC12 (stereo not given) + Cc1cc([N+](=O)[O-])ccc1NS(=O)(=O)c1cc(Cl)ccc1Cl [FH535] (first compound 0.4 µM, partner dose 1 µM)",90.4,78.2,85.4,88.1,93.8,89.2,95.3,84.7,87.6,63.9
"CCN(CC)CCCCNc1ncc2cc(-c3cc(OC)cc(OC)c3)c(NC(=O)NC(C)(C)C)nc2n1 + COc1cc(N2CCC(N3CCN(C)CC3)CC2)ccc1Nc1ncc(Cl)c(Nc2ccccc2S(=O)(=O)C(C)C)n1 [NVP-TAE684] (first compound 0.1 µM, partner dose 0.08 µM)",94.8,75,81,96.2,82.8,89.7,103,92,106,104
"COc1cc2ncnc(Nc3ccc(Oc4ccccc4)cc3)c2cc1OC + c1cc(-c2cnn3cc(-c4ccc(OCCN5CCCCC5)cc4)cnc23)ccn1 [Dorsomorphin] (first compound 2 µM, partner dose 0.4 µM)",85.7,123,108,88.8,112,92.6,92.6,104,105,113
"COc1ccc2c(c1)CCC1C2CCC2(C)C(NCCCCCCN3C(=O)C=CC3=O)CCC12 (stereo not given) + c1cc(-c2cnn3cc(-c4ccc(OCCN5CCCCC5)cc4)cnc23)ccn1 [Dorsomorphin] (first compound 0.4 µM, partner dose 0.4 µM)",96.4,75.2,99.9,86.5,95,88.4,86.3,114,94.2,91.8
"COC(=O)c1sccc1S(=O)(=O)Nc1ccc(Nc2ccccc2)cc1OC + Oc1nc(-c2ccc(C(F)(F)F)cc2)nc2c1CSCC2 [XAV939] (first compound 1 µM, partner dose 2 µM)",82.9,89,77.2,92.1,121,86.1,90.4,87.9,91.8,69.3
"COC(=O)c1sccc1S(=O)(=O)Nc1ccc(Nc2ccccc2)cc1OC + Oc1cc(-c2nc(-c3ccccc3)[nH]c2-c2ccncc2)ccc1Cl [L779450] (first compound 1 µM, partner dose 0.2 µM)",90.7,101,96.2,88.2,120,96.2,78.8,66,83.9,103
"COc1cc2ncnc(Nc3ccc(Oc4ccccc4)cc3)c2cc1OC + CC(C)CCN1c2nc(Nc3cc(F)c(O)c(F)c3)ncc2N(C)C(=O)C1C [BID1870] (first compound 2 µM, partner dose 0.2 µM)",101,97.1,94.8,81.5,115,100,106,89.4,98.5,110
"c1cc(-c2cnn3cc(-c4ccc(OCCN5CCCCC5)cc4)cnc23)ccn1 [Dorsomorphin] + O=c1cc(-c2cccc3c2Sc2ccccc2S3)oc(N2CCOCC2)c1 [KU55933] (first compound 0.4 µM, partner dose 1 µM)",91,110,106,109,118,76.3,81.8,86.4,109,119
"COc1cc2ncnc(Nc3ccc(Oc4ccccc4)cc3)c2cc1OC + O=c1cc(-c2cccc3c2Sc2ccccc2S3)oc(N2CCOCC2)c1 [KU55933] (first compound 2 µM, partner dose 1 µM)",95,107,129,86.6,101,103,96.5,113,103,119
"CCN(CC)CCCCNc1ncc2cc(-c3cc(OC)cc(OC)c3)c(NC(=O)NC(C)(C)C)nc2n1 + O=C(O)C(=O)Nc1sc2c(c1C(=O)O)CCNC2 [TCS401] (first compound 0.1 µM, partner dose 1.66667 µM)",110,121,89.5,93.8,99.5,89.4,81.4,101,104,123
"CCN(CC)CCCCNc1ncc2cc(-c3cc(OC)cc(OC)c3)c(NC(=O)NC(C)(C)C)nc2n1 + CCCCCCCCCCCC1=C(O)C(=O)C=C(O)C1=O [Embelin] (first compound 0.1 µM, partner dose 1.2 µM)",105,96.2,107,87.4,98.1,96.7,93.5,104,103,112
"COc1ccc(COc2ccc(Cc3cnc(N)nc3N)cc2OC)cc1 + CCCCCCCCCCCC1=C(O)C(=O)C=C(O)C1=O [Embelin] (first compound 1 µM, partner dose 1.2 µM)",110,99.9,86.6,91.3,116,91.5,89.3,90.9,101,122
"N#Cc1c(O)c2c(-c3ccc(-c4ccccc4O)cc3)csc2[nH]c1=O + O=C1NC(=O)/C(=C/c2ccc(-c3ccc(F)cc3O)o2)S1 [AS252424] (first compound 2 µM, partner dose 1 µM)",97.1,106,124,91,77.7,95.3,90.9,105,99.3,107
"Oc1nc(-c2ccc(C(F)(F)F)cc2)nc2c1CSCC2 + Cn1cc(/C=C2\C(=O)Nc3cccnc32)c2ccccc21 [GW441756] (first compound 2 µM, partner dose 0.4 µM)",88,102,76.6,74.6,88.7,88.5,99.4,82.4,96.9,66.9
"c1cc(-c2cnn3cc(-c4ccc(OCCN5CCCCC5)cc4)cnc23)ccn1 [Dorsomorphin] + CC(C)CCN1c2nc(Nc3cc(F)c(O)c(F)c3)ncc2N(C)C(=O)C1C [BID1870] (first compound 0.4 µM, partner dose 0.2 µM)",87.8,107,93.9,99.2,96.7,102,82.6,94,91.1,91.2
"COc1ccc2c(c1)CCC1C2CCC2(C)C(NCCCCCCN3C(=O)C=CC3=O)CCC12 (stereo not given) + O=C(O)C(=O)Nc1sc2c(c1C(=O)O)CCNC2 [TCS401] (first compound 0.4 µM, partner dose 1.66667 µM)",93,59.4,110,91.5,87.8,110,88.6,89.9,85.3,88
"COc1ccc(COc2ccc(Cc3cnc(N)nc3N)cc2OC)cc1 + CC(C)CCN1c2nc(Nc3cc(F)c(O)c(F)c3)ncc2N(C)C(=O)C1C [BID1870] (first compound 1 µM, partner dose 0.2 µM)",114,116,121,90.1,58,98.7,99.9,103,96.6,113
